The list shows a part of the results. Binding of human antibodies (heavy:light variable regions, tested as scFv in one mRNA-display pool) to influenza hemagglutinin, with or without the stem antibody CR9114 bound first. Score = (mean enrichment − median) / interquartile range of that screen; higher = more enriched, 0 = typical non-binder. Active = above the paper's cut-off per screen: stems 28; unblocked H1 Solomon Islands 5, H1 Michigan 3, H3 5, H5 19, H7 2.85, both B 5; blocked 9, 7, H5 10, H7 10, B Phuket 10, B Lee 11.5. Scores are scaled within each screen and are no affinities; replicates correlate at about 0.6 to 0.9, and antibodies rare in the pool are noisier.
B1: R95-2H06 (protein)
chain 1: EVQLVESGGVVQQPGGALRLSCAASGLTFDEYAMHWVRQAPGKGLEWVSLITWDGGTTYYADSVKGRFTISRDNSKNSLYLQMNSLRPEDSGLYYCAKDPYGSGSAGWFDPWGQGTLVTVSP
chain 2: DIQMTQSPSSLSASVGDRVNITCRASQSIIFYLNWYQQRPGKAPKLLIYHASILQSGVPSRFTGSGSGTDFTLTISSLQPEDLATYYCQQSYSIPLTFGGGTKVEIK
B2: K77-2F08 (protein)
chain 1: EVQLVESGEGVVHPGTSLRLSCAASGFTFGSYGLHWVRQAPGKGLEWVAFISYDGGEKSYADSLKGRFAISRDKSKNVLYLEMNTLRAEDTALYSCARTWNSYFFDQWGQGTLVTVSS
chain 2: QSALTQPASVSGSPGQSITISCTGTGSDVGIYNLVSWYQHHPGKAPKFMIYEVSERPSGVSSRFSGSKSGNTASLTISGLQAEDEANYYCCSYAGSNTWVFGGGTKLTVL
B3: 56.d.01 (protein)
chain 1: EVQLVESGGGLVQPGGSLRLSCSASGFTVSNYAMHWVRQAPGKGLEYVSAISVNGFSTFYTDSVKGRFTISKDNSKNTLYLQMSSLRPEDTAVYYCVKAESYDFWSGYDWGQGTQVTVSS
chain 2: EIVLTQSPGTLSLSPGERATLSCRASQSVSSSSLAWYQQKPGQAPRLLIFGASSRATGIPDRFSGSGSGTDFTLTISRLEPEDFAVYYCQQYGSLGTFGGGTKVEIK
B4: 045-09-1F04 (protein)
chain 1: EVQLVESGGGLVQPGGSLRLSCAGSGFSFSSYSMNWVRQAQGRGLEWVSYISSYSGTIYYADSVKGRFTISRDNAKNSLYLQMNSLTADDTAVYYCARDDDSNDYNQDRYYYYGMDVWGQGTTVTVSS
chain 2: EIVMTQSPATLSVSPGERATLSCRASQSVSSNLAWYQQKPGQAPRLLIYGASTRATGIPARFSGSGSGTEFTLTISSLQSEDFALYYCQQYDNWPPITFGQGTRLEIK
B5: K77-2A09 (protein)
chain 1: EVQVVESGGTVVQPGGSLTLSCTTSGFTFDNFAMHWVRQAPGKGLEWVALVGWDSAVIYYADSVQGRFNISRDNSKNSLYLQMNSLRAEDTALYYCAKDDDPGNYGYFHYSLDVWGQGTAVTVTS
chain 2: DVVMTQSPLSLPVTLGQPASISCRSSQSLVDSYGDTYLNWFQQRPGQSPRRLIYKVSNRDSGVPDRFSGSGSGTDFTLKISRVEADDVGVYYCMQGTHWPLTFGGGTKVEI
B6: C1-B01 (protein)
chain 1: VQLVESGGGLVQPGGSLRLSCAASGFPFATYSMNWVRQAPGKGLEWLSYISSSSATVFYADSVKGRLTISRDNAKNSLYLQMYSLRAEDTAVYYCAREEVVVAGTPFDSWGQGALVTVSS
chain 2: EIVMTQSPATLSVSPGERATLSCRASQSVGSRLAWYQQKPGQPPRLLLYDASTRATDIPARFSGTGYGTEFTLTISSIQSEDFAVYHCHQYSGWPPWTFGQGTKVEIK
B7: antibody 4D06 (protein)
chain 1: VQLVESGGGVVQPGTSLRLSCVASEFTFSSSGMHWVRQAPGKGLEWVAIISYDGRKKYYVDSVEGRFTISRDNSKNTLYLQMNSLRVEDTAIYYCAKASTVTKRYNWFDPWGQGTLVTVSS
chain 2: DIQMTQSPSSLSASVGDRVTITCRASESISSYLNWYQQRPGKAPKLLIYAASSLQTGVPSRFSGSGSGTDYTLTISSLQPEDFATYFCQQSYSTPLTFGPGTKVDIK
B8: 024-10-4C04 (protein)
chain 1: EVQLVQSGAEVKKPGESLKISCKGSEYSFSNYWIGWVRQMSGKGLEWMGIIYPDDSDTRYSPSFQGQVTISADKSISTAYLQWSSLKASDTAMYYCVRHSDAHSTNPDPPFYFRFAMDVWGQGTTVTVSS
chain 2: QSVLTQPPSVSGAPGQRVIISCTGNNSNIGAGHDVHWYQQVPGTAPKLLIFGNKNRPSGVPDRFSGSKSGSSASLAITGLQAADEADYYCQSYDNSLSLSHYWVFGGGTKVTVL
B9: R95-2E07 (protein)
chain 1: EVQLVESGGGLVQPGGSLRLSCAASGFPFSTYWMYWVRQAPGKGLVSVSRINSDGSGTSYADSVEGRFTISRDNAKNTLYFQMNSLRAEDTAVYYCARRFGSGWTEWYFDLWGRGTLVTVSS
chain 2: DIQMTQSPSTLSASVGDKVTITCRASQSINRWLAWYQQKPGKAPKLLIYRASSLESGVPSRFSGSGSGTEFTLTISSLQPDDFATYFCQHYEGYSWTFGQGTKVDIK
B10: AG2-B02 (protein)
chain 1: VQLVQSGAEVKKPGESLKISCRASGYNFDRHWIGWVRQTPGKGLEWMAIIYPHDSGHRYSPAFEGQVAISADKSTSTAYLQWSSLKASDTATYYCAKLPSKYYYDNSGPFDVWGQGTLVTVSS
chain 2: AIQLTQSPSSLSASVGDRVTITCRASESVITALAWYQQRPGRAPRLLISDASTLQNGVPSRFSGSGSGTDFALTITSLQPEDFATYYCQQYETGPTFGQGTRLEIK
B11: K77-1C12 (protein)
chain 1: EVQLVESGGGVVQPGGSLRLSCAASGFTFSNYGMHWVRQAPGKGLEWVAFIRYDGSNEYYGDSAKGRFTISRDNSKNTLYLQLISLRPDDTAVYYCANEPDPQSGGLRNDGVVHHDHWGQGTLVTVSS
chain 2: QSALTQPVSVSGSPGQSITISCTGTSFDVGGYHYVSWYQQYPGKAPKLMIYDVSKRPSGVSNRFSGSKSGITASLTISGLQAEDEADYHCGSYTSSYTWVFGGGTKLTVL
B12: 024-10-4C05 (protein)
chain 1: QLQLQESGPGLVKPSETLPLICTVSGGAIRFSSYYWGWIRQAPGKGLEWIATIHYSGTAHYNPSLKSRLTISVDTSTNQFSLRLSSVTAADTAVYYCARHRGYCSGGGCFGEVYFDSWGQGALVTVSS
chain 2: DIQMTQSPSSLSASVGDRVTITCRASQNIRTYLSWYQQKPGGAPKLLIYAASSLQSGVPLRFSGSGSGTDFTLTINGLQPEDFATYYCQQSYTTIVFGGGTKVEIK
B13: antibody 3E06 (protein)
chain 1: VQLQESGPGLVKPSETLSLNCTVSGGSIITSSLYWGWIRQPPGKGLEWIGCIYVDGSTYYNPSLTSRVTISVDTSKNQFSLSLTSVTAQDTAVYYCARPTGEGGGAFDIWGQGTMVTVSS
chain 2: DIQMTQSPSTLSASVGDRVTITCRASQSISIWLAWFQQKPGKAPKLLIYKASTLETGVPSRFSGSGSGTEFTLTISSLQPDDFATYYCQQYNIYWTFGQGTKVEIK
B14: antibody 1G03 (protein)
chain 1: EVQLVETGGGLIQPGGSLRLSCAASGFIVSSNYMSWVRQAPGKGLEWVSVIYGGSSTYYADSVKGRFIISRDNSKSTLYLQMNSLRAEDTAVYYCARGPADIVAAGTYPYYYYAMDVWGQGTTVTVSS
chain 2: DIQMTQSPDSLAVSLGERATINCKSSQSVLYSSNNKNYLAWYQQKPGQPPKLLIYWASTRESGVPDRFSGSGSGTNFTLTIRSLQAEDVAVYYCQQYYITPYTFGQGTKVEIK
B15: antibody 5D03 (protein)
chain 1: VQLVQSGAEMKKPGESLQISCEGSGYNFNGYWIGWLRQMPGKGLEWMGIIHPSDSDTRYSPSLQGQVTISVDKSISTAYLLWNSLKTSDTAIYYCARRGGANYGLDYWGQGTLVTVSS
chain 2: DIQMTQSPSSLSASVGDRVTITCRARQTINRYLNWYQQKPGKAPKLLIYAATNLQSGVPSRFSGTGSGTLFTLTISSLQPEDLATYFCQQTYSTLGTFGPGTKVDIK
B16: W85-1B04 (protein)
chain 1: LVQLQQWGAGLLKPSETLSLTCAVYGGSFSGYYWSWIRQPPGKGLEWIGEINHSGSSNYKPSLKSRVAISVDTSKNQFSLKLSSVTAADTAVYYCARGGRDGYNYTPFRAFDIWGQGTMVTVSS
chain 2: SYELTQPPSVSLSPGQTASITCSGDKLGDKYVCWYQQKPGQSPVLVIYADSKRPSGIPERFSGSNSGNTATLTISGTQAMDEADYYCQAWDTSTAIFGGGTRLTV
B17: W85-2F03 (protein)
chain 1: EVQLVESGGGLVQPGRSLRLSCTTSEFTFDEYTMSWVRQAPGKGLEWVGFIGSKAYRGTTEYAASVKGRFTISRDDFRSIAYLQMNSLKTEDTAVYYCTRDSGFGDYFDYWGQGTLVTVSS
chain 2: QSALTQPASVSGSPGQSITISCTGTSGDIGGYNYVSWYQQHPGKAPKLMIYDVSNRPSGVSNRFSASQSGKTASLTISGLQAEDEADYYCFSFTSTSTWVFGGGTKLTVL
B18: C1-2-2F04 (protein)
chain 1: VQLVESGGGVVQPGGSLRLSCAASGFIFTDYVMHWLRLTPGKGLEWVAIISFDGSNTYYTDSVKGRFTISRDQSANTLYLLMNSLRPDDTAVYYCVRGQDSSHYFDAWGQGALVTVSS
chain 2: EIVMTQSPATLSVSPGERATLSCRASQDIGTNLAWYQQKPGLAPRLLIYGVSTRATGIPARFSGSGSETEFTLTISIMQSEDCAVYFCQQYDFWPTFGQGTKVEIK
B19: R95-2E12 (protein)
chain 1: QVQLQESGPGLVKPSETLSLTCVVSDGSISSSTYYWGWIRQPPGKGLEWIGSIYYSGDTYYNPSLKSRVITSVDTSKNQFSLKLSSVTAADTAVYYCARHGPWQLSYFDYWGQGTLVTVSS
chain 2: QSALTQPRSVSGSPGQSVTISCTGTGSRVGGYHYVSWYQQHPGKAPKLMIYEVNKRPSGVPDRFSGSQSGNTASLTISGLQAEDEADYYCCSYAGSFLLFGGGTKLSV

target: H1 HA stem construct (mini-HA #4900); experiment: mRNA display binding score; higher = more enriched on the antigen; details: antigen blocked with: nothing
Protocol: (§1)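 A pool of natively paired antibodies, displayed as scFv on mRNA, was selected once on antigen-coated beads and sequenced before and after; two replicates.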

mRNA display binding score, inactive:
B1 -0.0485
B2 0.192
B3 0.429
B4 0.357
B5 -0.336
B6 0.179
B7 1.99
B8 0.386
B9 0.324
B10 -0.65
B11 -1.21
B12 -1.08
B13 0.307
B14 -0.507
B15 -1.02
B16 0.0976
B17 -0.28
B18 0.0839
B19 -0.909

target: H3 HA stem construct (H3ssF); experiment: as above; details: antigen blocked with: nothing
Protocol: as §1

mRNA display binding score, inactive:
B1 -0.179
B2 -0.134
B3 0.268
B4 -0.132
B5 2.23
B6 0.644
B7 7.88
B8 -0.43
B9 0.00968
B10 0.538
B11 -0.24
B12 0.484
B13 -0.219
B14 0.312
B15 0.28
B16 -0.0726
B17 0.564
B18 -0.739
B19 -0.701

Reference: the supplement of paper PMC11383711
